# Values of other authors, collected in article PMC11006913.
# Positions count from the first letter of the chain named. The list shows a part of the results.
# Assays:
# Conditions in all cases: PBM; conditions not shown; double strand, one strand shown; scale: upbm affinity estimate (log intensity, higher = more binding, comparable within an allelic series)
# [1] = target: ARX (Homo sapiens) (UniProt Q96QS3)
# [2] = target: ARX L343Q (Homo sapiens) (UniProt Q96QS3)
# [3] = target: ARX P353L (Homo sapiens) (UniProt Q96QS3)
# [4] = target: ARX P353R (Homo sapiens) (UniProt Q96QS3)
# [5] = target: ARX R332H (Homo sapiens) (UniProt Q96QS3)
# [6] = target: ARX T333N (Homo sapiens) (UniProt Q96QS3)
# [7] = target: T1, HESX1 E149K (Homo sapiens) (UniProt Q9UBX0)
# T1 sequence: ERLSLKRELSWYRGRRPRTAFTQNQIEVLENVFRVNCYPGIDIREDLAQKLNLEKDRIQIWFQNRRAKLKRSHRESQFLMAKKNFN
# [8] = target: T2, HESX1 N125S (Homo sapiens) (UniProt Q9UBX0)
# T2 sequence: T1 sequence with N31S, K55E
# [9] = target: T3, HESX1 R160C (Homo sapiens) (UniProt Q9UBX0)
# T3 sequence: T1 sequence with K55E, R66C
# [10] = target: HOXD13 I297V (Homo sapiens) (UniProt P35453)
# [11] = target: HOXD13 I322L (Homo sapiens) (UniProt P35453)
# [12] = target: HOXD13 N298S (Homo sapiens) (UniProt P35453)
# [13] = target: HOXD13 Q325K (Homo sapiens) (UniProt P35453)
# [14] = target: HOXD13 Q325R (Homo sapiens) (UniProt P35453)
# [15] = target: HOXD13 R306W (Homo sapiens) (UniProt P35453)
# [16] = target: HOXD13 S316C (Homo sapiens) (UniProt P35453)
# [17] = target: ISX (Homo sapiens) (UniProt Q2M1V0)
# [18] = target: ISX R83Q (Homo sapiens) (UniProt Q2M1V0)
# [19] = target: PROP1 R112Q (Homo sapiens) (UniProt O75360)
# [20] = target: PROP1 R99Q (Homo sapiens) (UniProt O75360)
Sequence,binding signal [1],binding signal [2],binding signal [3],binding signal [4],binding signal [5],binding signal [6],binding signal [7],binding signal [8],binding signal [9],binding signal [10],binding signal [11],binding signal [12],binding signal [13],binding signal [14],binding signal [15],binding signal [16],binding signal [17],binding signal [18],binding signal [19],binding signal [20]
ATAATTAA [8-mer ATAATTAA],13.2,11,12.6,10.9,11.1,12.3,11.9,13.5,10.4,12.2,11.5,12.4,11.6,11.9,11.6,12.1,15.6,14.7,12.8,12.3
AATTAATA [8-mer AATTAATA],12.8,11,12.4,10.8,11.2,12.1,11.4,11.7,10.4,12.4,11.6,12.7,12,12.2,11.9,12.4,15,14,12.7,12.1
ATTAATTG [8-mer ATTAATTG],13,11,12.7,10.9,11.2,12.3,11.8,12.6,10.4,12.3,11.2,12.4,11.1,11.5,11.5,12.1,15.4,14.8,12.9,12.3
CTAATTGC [8-mer CTAATTGC],12.9,10.9,12.5,10.7,10.9,12,11.7,12.1,10.4,,,,,,,,15.2,14.1,12.7,12.3
CTAATTAA [8-mer CTAATTAA],13.3,11,13.1,10.9,11.2,12.7,12.1,13.7,10.3,12.3,,12.5,,12.1,,12.2,15.5,15.6,12.9,12.5
CAATTAGC [8-mer CAATTAGC],13.2,10.9,12.9,10.7,11,12.2,11.9,12.7,10.3,,,,,,,,15.5,14.7,12.9,12.5
AGCAATTA [8-mer AGCAATTA],12.8,10.9,12.3,10.7,11,11.9,11.7,12.3,10.4,,,,,,,,15.2,14.1,12.8,12.3
ATAATTGG [8-mer ATAATTGG],13,11,12.7,10.8,11.2,12.2,12.1,13.4,10.4,,,,,,,,15.3,14.6,12.9,12.6
ACTAATTG [8-mer ACTAATTG],13.1,11,12.7,10.8,11,12.2,11.8,12.6,10.4,,,,,,,,15.3,14.5,12.8,12.5
